The supplement of paper PMC8183993
Structures can show the parent of a compound that is named as a salt. ± gives the standard deviation of the averaged measurements. In all, about 3,200 compounds were measured (“nuclei count (viability) relative to DMSO”: median about 99, lowest 2% from about 16 on). The list shows a part of the results.

These compounds were tested on U2OS (assay: nuclei count (viability) relative to DMSO (% of DMSO); higher = more viable cells). Conditions: 10 µM; 24 h.
Procedure: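 Primary image-based screen in U2OS cells: compounds at 10 uM for 24 h, then a 1 h o-propargyl-puromycin (OPP) pulse, click labelling, and high-throughput microscopy. Mean cytoplasmic OPP intensity and nuclei count were normalised to DMSO wells within each plate (DMSO = 100) and averaged over triplicate plates.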

Structure (SMILES)	nuclei count
Cc1nccn1CC1CCc2c(c3ccccc3n2C)C1=O (centres undefined) [Ondansetron Hydrochloride]	97
CC(=O)NC[C@H]1CN(c2ccc(N3CCOCC3)c(F)c2)C(=O)O1 [Linezolid]	101
Cn1sc(=O)n(Cc2ccccc2)c1=O	84.3
COc1ccc2cc3[n+](cc2c1OC)CCc1cc2c(cc1-3)OCO2 [Berberine HCl]	98.6
COc1cc2c(cc1Cc1cccc(Cl)c1F)c(=O)c(C(=O)O)cn2[C@H](CO)C(C)C [Elvitegravir (GS-9137)]	96.3
Nc1ncnc2c1ncn2[C@@H]1O[C@H](CO)C[C@H]1O [Cordycepin]	100
CCCC[C@@H](C=O)NC(=O)OC(C)(C)C	106
Brc1ccc(C2CN3CCSC3=N2)cc1 [L-p-Bromotetramisole oxalate]	98.8
c1cc(CN2CCCCC2)cc(OCCCNc2nc3ccccc3s2)c1 [Zolantidine dimaleate]	105
CCc1cc2c(cc1CC)CC(NC[C@H](O)c1ccc(O)c3[nH]c(=O)ccc13)C2 [Indacaterol Maleate]	95.9
CNCC(O)c1ccc(O)c(O)c1 (centres undefined) [Racepinephrine HCl]	96.4
CCOC1O[C@H]([C@@H](COCc2ccccc2)OCc2ccccc2)[C@H](OCc2ccccc2)[C@H]1O (some centres undefined) [Tribenoside]	90.5
Cc1c(-c2ccc(O)cc2)n(Cc2ccc(OCCN3CCCCCC3)cc2)c2ccc(O)cc12 [Bazedoxifene HCl]	82.9
CCOC(=O)[C@@H](C)Oc1cccc2c(=O)n(CC(=O)Nc3ccc4c(c3)OCCO4)ccc12	108
CC[C@H](CO)Nc1nc(Nc2cccc(-c3ccccn3)c2)c2ncn(C(C)C)c2n1 [(R)-DRF053 dihydrochloride]	76.2
CC(=O)Nc1c(I)c(C(=O)N[C@H]2C(O)O[C@H](CO)[C@@H](O)[C@@H]2O)c(I)c(N(C)C(C)=O)c1I (some centres undefined) [Metrizamide]	105
Cc1ccccc1N1CCN(S(=O)(=O)C[C@]23CC[C@H](C[C@@H]2NC(=O)[C@@H](N)CCS(C)(=O)=O)C3(C)C)CC1 [L-368,899 hydrochloride]	108
O=C(O)c1ccnc(C(=O)O)c1 [2,4-Pyridinedicarboxylic Acid]	97.2
NC[C@H](O)c1ccc(O)c(O)c1 [Noradrenaline bitartrate monohydrate (Levophed)]	105
CCN(CC)CCNC(=O)c1ccc(N)cc1 [Procainamide hydrochloride]	101
CN[C@H]1CC[C@@H](c2ccc(Cl)c(Cl)c2)c2ccccc21 [Sertraline HCl]	88.6
CN[C@H]1CC[C@@H](c2ccc(Cl)c(Cl)c2)c2ccccc21 [Sertraline hydrochloride]	84.1
CN[C@H]1CC[C@@H](c2ccc(Cl)c(Cl)c2)c2ccccc21 [Sertraline]	101
C[C@@H]1CCC[C@H](C)N1NC(=O)c1ccc(Cl)c(S(N)(=O)=O)c1 [Clopamide]	110
CC[C@H]1OC(=O)[C@H](C)[C@@H](O[C@H]2C[C@@](C)(OC)[C@@H](O)[C@H](C)O2)[C@H](C)[C@@H](O[C@@H]2O[C@H](C)C[C@H](N(C)C)[C@H]2O)[C@](C)(O)C[C@@H](C)CN(C)[C@H](C)[C@@H](O)[C@]1(C)O [Azithromycin (Zithromax)]	90.6

Structure (SMILES)	nuclei count
CC[C@H]1OC(=O)[C@H](C)[C@@H](O[C@H]2C[C@@](C)(OC)[C@@H](O)[C@H](C)O2)[C@H](C)[C@@H](O[C@@H]2O[C@H](C)C[C@H](N(C)C)[C@H]2O)[C@](C)(O)C[C@@H](C)CN(C)[C@H](C)[C@@H](O)[C@]1(C)O [Azithromycin]	94.3
N#Cc1c(N(CC(=O)O)CC(=O)O)sc(C(=O)O)c1CC(=O)O [Strontium ranelate (Protelos)]	101
CCn1c(N)c(C(=O)NC)c(=O)c2ccc(C#CC(C)(O)COC)nc21 (centres undefined)	96.5 ± 3.1
CCOC(=O)C1=C(C)NC(=S)NC1c1cccc(O)c1 (centres undefined) [Monastrol]	79.7
OCCn1cc(-c2ccc3c(c2)CC/C3=N\O)c(-c2ccncc2)n1	102
CC(C)[N+]1(C)[C@@H]2CC[C@H]1C[C@@H](OC(=O)C(CO)c1ccccc1)C2 (some centres undefined) [Ipratropium bromide]	101
Cc1ccc(-c2cc(C(F)(F)F)nn2-c2ccc(S(N)(=O)=O)cc2)cc1 [Celecoxib]	98.2 ± 3.7
Nc1ccc(S(=O)(=O)Nc2nccs2)cc1 [Sulfathiazole]	98.1
O=C(O)c1cccc(-c2noc(-c3ccccc3F)n2)c1 [PTC124 (Ataluren)]	94.7
CC(CNC1CCCCC1)OC(=O)c1ccccc1 (centres undefined) [Hexylcaine hydrochloride]	100
CO/N=C(\C(=O)N[C@@H]1C(=O)N2C(C(=O)O)=C(COC(C)=O)CS[C@H]12)c1csc(N)n1 [Cefotaxime sodium salt]	71.3
COC1CCC(C(=O)c2ccc3nc4c(cc3c2)CCCO4)CC1 (centres undefined)	96.5
C=C[C@](C)(O)CC[C@@H]1[C@@]2(C)CCCC(C)(C)[C@@H]2CC[C@@]1(C)O [Sclareol]	102
C[C@]12CC[C@@H]3c4ccc(O)cc4C[C@@H](CCCCCCCCC[S+]([O-])CCCC(F)(F)C(F)(F)F)[C@H]3[C@@H]1CC[C@@H]2O (some centres undefined) [Fulvestrant]	99
C[C@]12CC[C@@H]3c4ccc(O)cc4C[C@@H](CCCCCCCCC[S+]([O-])CCCC(F)(F)C(F)(F)F)[C@H]3[C@@H]1CC[C@@H]2O (some centres undefined) [Fulvestrant (Faslodex)]	99.6
C[C@]12CC[C@@H]3c4ccc(O)cc4C[C@@H](CCCCCCCCC[S+]([O-])CCCC(F)(F)C(F)(F)F)[C@H]3[C@@H]1CC[C@@H]2O (some centres undefined)	101
NC(=O)N/N=C/c1ccc(Oc2ccc(F)cc2)cc1	99.5
Clc1ccc(C2(c3ccc(-c4cn[nH]c4)cc3)CCNCC2)cc1	39
COc1cc(CNC(=O)CCCC/C=C/C(C)C)ccc1O [(E)-Capsaicin]	100
COc1cc(CNC(=O)CCCC/C=C/C(C)C)ccc1O [Capsaicin]	101 ± 3
CCS(=O)(=O)c1cccc(-c2cc(C(=O)NC3CCN(C)CC3)c(C)c3[nH]c4ncc(C)cc4c23)c1	17.8
C1CCC(N=C(NC23CC4CC(CC(C4)C2)C3)N2CCOCC2)CC1	93.4
COC(=O)[C@H](Cc1ccccc1)NC(=O)[C@@H](N)CC(=O)O [Aspartame]	108
O=C(/C=C/c1ccc(O)c(O)c1)O[C@H](Cc1ccc(O)c(O)c1)C(=O)O [Rosmarinic acid]	88 ± 5.2
CCCCOc1cc(C(=O)OCCN(CC)CC)ccc1N [Benoxinate hydrochloride]	102

Structure (SMILES)	nuclei count
CC(C)c1ccccc1S(=O)(=O)c1cc(N)c2ncccc2c1[N+](=O)[O-]	89.8
CCOC(=O)C1=C(N)Oc2ccc(Br)cc2C1C(C#N)C(=O)OCC (centres undefined)	87.1 ± 14
NC1(Cc2ccc(Cl)cc2)CCN(c2ncnc3[nH]ccc23)CC1	73.1
Cc1cc(C(C)Nc2ccccc2)c2nc(N3CCOCC3)cc(=O)n2c1 (centres undefined)	99.3
Clc1ccc2nsnc2c1NC1=NCCN1 [Tizanidine hydrochloride]	101
Clc1ccc2nsnc2c1NC1=NCCN1 [Tizanidine HCl]	90.8
Cc1cc(Nc2cc(N3CCN(C)CC3)nc(Sc3ccc(NC(=O)C4CC4)cc3)n2)n[nH]1 [VX-680 (MK-0457, Tozasertib)]	46.4
CC(C)Oc1ccc2c(=O)c(-c3ccccc3)coc2c1 [Ipriflavone]	93.1
CC(=O)Nc1nnc(S(N)(=O)=O)s1 [Acetazolamide]	98.3
Nc1nc(OCc2cc(Br)cs2)c2[nH]cnc2n1 [Lomeguatrib]	102
CCCCOc1ccc(C(=O)Nc2ccc(F)cc2F)cc1	98.7
Cc1cc2cc3c(C)cc(=O)oc3c(C)c2o1 [Trioxsalen]	102
CCCOc1ccccc1-c1nc2[nH]nnc2c(=O)[nH]1 [Zaprinast]	106 ± 3.4
CCC[C@@H]1C[C@@H](C(=O)N[C@@H]([C@H]2O[C@H](SC)[C@H](OP(=O)(O)O)[C@@H](O)[C@H]2O)[C@H](C)Cl)N(C)C1 [Clindamycin phosphate]	104
CCCCCCNC(=O)n1cc(F)c(=O)[nH]c1=O [Carmofur]	97.7
Cc1nc(C(=O)NCC(=O)O)c(O)c2ccc(Oc3ccccc3)cc12	106
COC(=O)C1=CO[C@@H](O)[C@@H]2C(CO)=CC[C@H]12 [Genipin]	87.2
COc1cccc2c1C(=O)c1c(O)c3c(c(O)c1C2=O)C[C@@](O)(C(=O)CO)C[C@@H]3O[C@H]1C[C@H](N)[C@H](O[C@@H]2CCCCO2)[C@H](C)O1 [Pirarubicin]	33
COc1cc2c(NC3CCN(C(C)C)CC3)nc(N3CCC(F)(F)CC3)nc2cc1OCCCN1CCCC1	50.6
CC#C[C@]1(O)CC[C@H]2[C@@H]3CCC4=CC(=O)CCC4=C3[C@@H](c3ccc(N(C)C)cc3)C[C@@]21C [Mifepristone (Mifeprex)]	111
CC#C[C@]1(O)CC[C@H]2[C@@H]3CCC4=CC(=O)CCC4=C3[C@@H](c3ccc(N(C)C)cc3)C[C@@]21C [Mifepristone]	97.5 ± 7.4
COc1cc(SC)ccc1C(=O)N1CCC(Cc2ccccc2)CC1	106
CC[C@@H]1C(=O)N(C)c2cnc(Nc3ccc(C(=O)N[C@H]4CC[C@H](N5CCN(CC6CC6)CC5)CC4)cc3OC)nc2N1C(C)C [BI6727 (Volasertib)]	34.4
CCc1cccc(CC)c1NC(=O)N1Cc2[nH]nc(NC(=O)c3ccc(N4CCN(C)CC4)cc3)c2C1	44.2
